Data reported in US20230141962A1 (published 2023).

How the values were obtained:
Test in all cases: phage ELISA
[1] = molecular target: T1, HCoV-229E Spike/S1 Protein (HCoV-229E, UniProt P15423 16-536)
T1 construct: domain: Spike/S1; also called 229E-HIS
T1 sequence: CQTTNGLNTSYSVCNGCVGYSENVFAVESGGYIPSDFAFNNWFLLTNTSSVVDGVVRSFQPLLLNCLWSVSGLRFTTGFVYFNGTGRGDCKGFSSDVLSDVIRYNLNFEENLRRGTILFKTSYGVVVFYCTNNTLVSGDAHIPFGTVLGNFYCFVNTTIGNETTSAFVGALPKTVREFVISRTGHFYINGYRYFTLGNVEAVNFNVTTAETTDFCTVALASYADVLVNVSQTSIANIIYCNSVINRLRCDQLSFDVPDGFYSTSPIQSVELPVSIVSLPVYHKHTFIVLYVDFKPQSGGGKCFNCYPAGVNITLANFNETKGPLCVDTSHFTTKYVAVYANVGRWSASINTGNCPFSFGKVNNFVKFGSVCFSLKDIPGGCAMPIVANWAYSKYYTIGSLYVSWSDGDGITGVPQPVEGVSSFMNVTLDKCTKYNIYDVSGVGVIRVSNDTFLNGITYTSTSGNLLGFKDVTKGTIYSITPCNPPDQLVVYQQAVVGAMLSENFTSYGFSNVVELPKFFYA

[2] = molecular target: T2, HCoV-HKU1 Spike/S1 Protein (HCoV-HKU1, UniProt Q0ZME7 13-756)
T2 construct: domain: Spike/S1; also called HKU1-HIS
T2 sequence: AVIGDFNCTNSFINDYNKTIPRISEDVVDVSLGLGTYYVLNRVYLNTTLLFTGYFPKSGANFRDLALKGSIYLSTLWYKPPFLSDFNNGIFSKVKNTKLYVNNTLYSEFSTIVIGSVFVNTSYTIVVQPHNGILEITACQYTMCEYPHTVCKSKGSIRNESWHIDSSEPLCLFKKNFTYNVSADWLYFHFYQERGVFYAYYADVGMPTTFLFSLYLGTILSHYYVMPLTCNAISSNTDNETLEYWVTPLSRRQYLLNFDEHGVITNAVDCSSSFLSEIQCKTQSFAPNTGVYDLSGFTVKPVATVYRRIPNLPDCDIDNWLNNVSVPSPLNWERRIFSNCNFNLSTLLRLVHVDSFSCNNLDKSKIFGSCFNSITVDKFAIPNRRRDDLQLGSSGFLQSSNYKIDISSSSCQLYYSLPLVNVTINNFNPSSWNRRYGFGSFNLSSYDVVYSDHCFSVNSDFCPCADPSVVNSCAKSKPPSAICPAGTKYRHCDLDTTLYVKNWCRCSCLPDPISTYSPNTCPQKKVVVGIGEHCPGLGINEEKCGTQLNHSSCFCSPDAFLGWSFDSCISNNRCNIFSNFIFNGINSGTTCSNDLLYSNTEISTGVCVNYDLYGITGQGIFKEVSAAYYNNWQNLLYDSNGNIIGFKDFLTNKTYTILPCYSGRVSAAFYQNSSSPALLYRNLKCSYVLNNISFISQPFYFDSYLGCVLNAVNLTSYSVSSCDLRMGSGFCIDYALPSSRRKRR

[3] = molecular target: T3, HCoV-NL63 Spike/S1 Protein (HCoV-NL63, UniProt Q6Q1S2 19-717)
T3 construct: domain: Spike/S1; also called NL63-HIS
T3 sequence: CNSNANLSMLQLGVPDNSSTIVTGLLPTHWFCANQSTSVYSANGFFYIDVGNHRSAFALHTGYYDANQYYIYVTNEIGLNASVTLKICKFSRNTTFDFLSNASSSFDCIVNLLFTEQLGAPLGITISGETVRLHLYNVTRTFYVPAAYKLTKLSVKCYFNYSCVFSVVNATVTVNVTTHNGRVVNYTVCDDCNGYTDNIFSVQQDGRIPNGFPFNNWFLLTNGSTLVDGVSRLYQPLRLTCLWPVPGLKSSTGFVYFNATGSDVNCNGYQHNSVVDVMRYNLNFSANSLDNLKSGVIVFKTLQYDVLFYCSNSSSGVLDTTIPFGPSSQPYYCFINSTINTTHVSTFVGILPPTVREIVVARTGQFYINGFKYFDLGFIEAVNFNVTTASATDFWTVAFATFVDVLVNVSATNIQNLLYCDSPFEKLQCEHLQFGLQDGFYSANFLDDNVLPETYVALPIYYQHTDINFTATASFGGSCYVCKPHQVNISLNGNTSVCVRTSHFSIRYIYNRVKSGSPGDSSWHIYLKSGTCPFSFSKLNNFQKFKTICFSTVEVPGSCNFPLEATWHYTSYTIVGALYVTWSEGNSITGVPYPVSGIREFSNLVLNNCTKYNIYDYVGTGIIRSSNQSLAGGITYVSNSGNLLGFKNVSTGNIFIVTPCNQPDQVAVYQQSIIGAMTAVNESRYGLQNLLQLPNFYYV

HCoV-OC43 Spike Protein = molecular target: T4, HCoV-OC43 Spike Protein (HCoV-OC43, UniProt P36334 14-1297)
T4 construct: also called OC43-HIS
T4 sequence: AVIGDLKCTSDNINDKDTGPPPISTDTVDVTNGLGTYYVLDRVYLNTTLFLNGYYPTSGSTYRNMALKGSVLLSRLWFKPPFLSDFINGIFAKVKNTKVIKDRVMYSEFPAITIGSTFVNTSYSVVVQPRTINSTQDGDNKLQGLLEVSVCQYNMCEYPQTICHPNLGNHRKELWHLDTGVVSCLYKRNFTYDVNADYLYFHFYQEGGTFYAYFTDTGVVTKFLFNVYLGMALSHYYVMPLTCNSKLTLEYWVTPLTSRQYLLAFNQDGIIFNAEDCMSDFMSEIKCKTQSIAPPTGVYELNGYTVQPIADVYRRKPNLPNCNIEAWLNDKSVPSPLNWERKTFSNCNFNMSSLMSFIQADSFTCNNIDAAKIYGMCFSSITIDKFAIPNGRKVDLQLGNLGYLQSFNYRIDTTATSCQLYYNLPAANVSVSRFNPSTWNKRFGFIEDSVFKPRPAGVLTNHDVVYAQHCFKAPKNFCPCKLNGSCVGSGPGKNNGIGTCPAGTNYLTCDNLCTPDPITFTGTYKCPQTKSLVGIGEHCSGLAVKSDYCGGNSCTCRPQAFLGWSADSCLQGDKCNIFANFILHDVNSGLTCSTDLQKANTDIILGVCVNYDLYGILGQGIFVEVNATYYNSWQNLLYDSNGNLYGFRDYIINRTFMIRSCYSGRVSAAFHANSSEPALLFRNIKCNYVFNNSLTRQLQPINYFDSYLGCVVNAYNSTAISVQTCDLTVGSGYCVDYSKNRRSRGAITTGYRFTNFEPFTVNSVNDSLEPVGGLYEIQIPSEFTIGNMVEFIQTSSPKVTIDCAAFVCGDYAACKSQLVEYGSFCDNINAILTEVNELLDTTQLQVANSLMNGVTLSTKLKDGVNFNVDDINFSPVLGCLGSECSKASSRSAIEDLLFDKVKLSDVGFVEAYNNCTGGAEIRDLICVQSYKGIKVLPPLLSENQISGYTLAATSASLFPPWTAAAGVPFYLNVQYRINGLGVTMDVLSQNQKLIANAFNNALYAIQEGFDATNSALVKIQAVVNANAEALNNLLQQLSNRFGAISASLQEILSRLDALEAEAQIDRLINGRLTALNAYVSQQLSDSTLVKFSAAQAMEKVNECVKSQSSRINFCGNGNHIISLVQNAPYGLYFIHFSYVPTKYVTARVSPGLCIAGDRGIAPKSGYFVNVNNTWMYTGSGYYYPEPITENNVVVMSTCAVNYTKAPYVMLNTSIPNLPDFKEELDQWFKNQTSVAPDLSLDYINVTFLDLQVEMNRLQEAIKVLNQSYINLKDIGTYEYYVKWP

Measured: binding result

B1: phage clone #85 (scFv)
scFv: QAVLTQPPSASGTPGQMVTISCSGSNSNIGSNPVNWYQQLPGTAPKLLIYGNDERPSGVPDRFSGSKSGTSASLAISGLQSEDEADYYCAAWDDSLDGHVIFGGGTKLTVLGSRGGGGSGGGGSGGGGSLEMA[about 100 residues not spelt out]GYSDYWGQGTLVTVSSTSGQAGQ
no binding: all assays above
